The text below walks through data of ChEMBL document CHEMBL1201862, “PubChem BioAssay data set” (2004).

SMILES strings stand for the structures.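 Five concentrations, 48 hours, 96-well plates. Abbreviation: GI50, concentration required for 50% inhibition of growth.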 The source made the active and inactive calls. No stated cut-off is given here; in the data, active = GI50 up to about 1.1 µM and inactive = higher.

This test deals with NCI-H322M. Put plainly: growth of human tumour cells (NCI), 48 h.
With `C[N+]1(C)CCc2cc(O)c(O)cc2C1Cc1ccc(O)c(O)c1` (centres undefined), the GI50 is inactive: > 100 µM.
The same measure for `CC(=O)Nc1ccc(-c2cc(C(=O)O)c3cc4ccccc4cc3n2)cc1`: inactive: > 100 µM; for `Cc1[nH]c2c(C)ccc(C)c2c1CC(=O)O`: inactive: 79.6 µM; for `O=C(COc1ccccc1)NS(=O)(=O)c1ccccc1`: inactive: > 100 µM.
The same measure for `Cc1ccc(S(=O)(=O)N2CCCN(S(=O)(=O)c3ccc(C)cc3)CC2)cc1`: inactive: > 100 µM; for `C=Cc1cnc([N+](=O)[O-])n1C`: inactive: 28.1 µM; for `CC12CCC(O)CC1CCC1C2CCC2(C)C(C(=O)CC(O)C(F)(F)F)CCC12` (centres undefined): inactive: 21.9 µM.
On to `CCCCCCCCCCCCC(=O)OC(c1cnco1)c1nc(C(O)CC(O)C(O)C(C)O)co1` (centres undefined), for which the GI50 was active: 0.893 µM.
For the molecule `O=C(O)CCC(NC(=O)c1ccc(OCc2nc3cc(C(F)(F)F)ccc3nc2-c2ccccc2)cc1)C(=O)O` (centres undefined), the GI50 is inactive: > 100 µM.
The figure for `CCOC(=O)C1(C(=O)OCC)CSC1` is inactive: 3.03 µM; for `COC1/C=C/C(C)C(C(C)C(OC)C(C)CCC(=O)C(C)C(C/C=C/N(C)C=O)OC)OC(=O)/C=C/C=C(\C)CC(OC)CC2=CC(=O)O[C@H](C2)C(C)C(OC)CC(OC)/C=C/C(C)C(OC)C1` (some centres undefined) it is active: 0.0121 µM.
The figure for `N#C/C(=C\c1ccc[nH]1)C(=O)c1ccccc1` is inactive: > 100 µM; for `CC(=O)Oc1ccc2cc(-c3ccc(OC(C)=O)c(OC(C)=O)c3)c(=O)oc2c1` it is inactive: 77.8 µM; for `O=C1N(CN2CCOCC2)CN(CN2CCOCC2)C(=O)N1Cc1ccccc1` it is inactive: > 100 µM.
The figure for `Cc1ccc(-c2n[nH]c(=O)n2N2C(=O)c3ccccc3C2=O)cc1` is inactive: > 100 µM.
As to `CCN(CC)C(=S)SS(C)(=O)=O`, the GI50 is inactive: 44.6 µM.
The figure for `COc1ccc(OC)c(/C=C/NC=O)c1` is inactive: > 100 µM.
With `C=C(C1=CC(=O)C(C)(C)O1)[C@@H]1CC=C([C@@H]2CC[C@H]3[C@@]2(C)CC[C@H]2C(C)(C)C(=O)[C@H](OC(=O)CC(C)(O)CC(=O)O)C[C@]32C)[C@H](O)O1` (some centres undefined), the GI50 was inactive: 39.6 µM.
Consider `CCN(CC)CCCNc1nncc2c(C)c3[nH]c4ccccc4c3cc12`, for which the GI50 is active: 0.416 µM.
The figure for `COc1ccc(OC(C)=O)c2c1CCC=CC2=O` is inactive: 18.7 µM; for `N#Cc1c(NC(=S)Nc2ccc(Cl)cc2)sc2c1CCCC2` it is inactive: > 100 µM.
For the molecule `CCOC(=O)NNC(=O)C1CSC(c2ccccc2)N1C(C)=O` (centres undefined), the GI50 is inactive: > 100 µM.
On to `CC1=NOC(=O)/C1=C/c1ccc([N+](=O)[O-])cc1`, for which the GI50 is inactive: > 100 µM.
With `CC1CCc2sc3nc(S)n(C)c(=O)c3c2C1` (centres undefined), the GI50 was inactive: 34 µM.
For `c1c2c(cc(-n3nnc4c3CCCCCC4)c1-n1nnc3c1CCCCCC3)CCCCCC2`, the GI50 was inactive: 12.6 µM.
The figure for `CC[C@]1(Cc2ccc(OC)c(OC)c2)C=[N+]([O-])O[C@H](OCc2ccccc2)[C@@H]1OC(C)=O` is inactive: 40.2 µM; for `Cc1ccc(C(=O)O)cc1S(=O)(=O)Nn1cnc2ccc(S(=O)(=O)Nc3ccccc3C(=O)O)cc2c1=O` it is inactive: > 100 µM.
The same measure for `CC(=O)/C(=C/NC(=S)c1ccncc1)C(=O)Nc1ccccc1C`: inactive: > 100 µM; for `C=C1C(=O)O[C@H]2C/C(C=O)=C\[C@H]3O[C@H]3/C(COC(=O)C(C)C)=C/CC12` (some centres undefined): inactive: 13.1 µM; for `O=C1Nc2ccccc2/C1=C1/Nc2ccccc2/C1=N/OCCO`: inactive: 1.95 µM.
The same measure for `C[S+]([O-])c1ncc2c(n1)-c1ccccc1OC2` (centres undefined): inactive: 48.1 µM.
Turning to `C/C(CC(=O)Nc1cc(Cl)c(Cl)cc1Cl)=N\NC(N)=O`, the GI50 is inactive: > 100 µM.
The figure for `CC1CCCP(=O)(c2ccccc2)CC1` (centres undefined) is inactive: > 100 µM.
For the molecule `O=C(Nc1ccccc1)OCCN=C1c2ccccc2C(Br)C(Br)c2ccccc21` (centres undefined), the GI50 was inactive: 15.8 µM.
As for `CCOC(=O)C(/N=N\c1ccc(S(N)(=O)=O)cc1)C(C)=O` (centres undefined), the GI50 is inactive: > 100 µM.
The figure for `COc1ccc(-c2c(C(C)=O)c(-c3ccccc3)n(C3OC(CO)C(O)C(O)C3O)c(=S)c2C#N)cc1` (centres undefined) is inactive: > 100 µM; for `CSc1nncc2[nH]c(C)nc12` it is inactive: > 100 µM.
For `COC(=O)C(C(=O)C(=O)Nc1ccccc1OC)c1csc(-n2nc(-c3ccccc3)cc2-c2ccccc2)n1` (centres undefined), the GI50 is inactive: > 100 µM.
The figure for `COCCOCOC(C)(C)[C@H](CCOC(C)=O)O[Si](c1ccccc1)(c1ccccc1)C(C)(C)C` is inactive: 16.3 µM.
For the molecule `CC(=O)OCc1c(O)nc2c(c1O)-c1ccccc1CC2`, the GI50 was inactive: 160 µM.
The figure for `C=CCN1C(=O)/C(=C/c2ccco2)N=C1SC/C=C/C` is inactive: 92 µM; for `Cc1cccc(C)c1/N=N/c1ccc(O)c(CN(C)C)c1` it is inactive: > 100 µM.
The same measure for `CC(=O)OC1CC(O)CC2=CCC3C4CCC(C(C)(O)C(O)CC5COC(=O)C5C)C4(C)CCC3C21C` (centres undefined): inactive: > 25 µM.
The same measure for `C/C(=N\Nc1nc2ccccc2n1C)c1ccncn1`: active: 0.191 µM; for `Cn1cnc([N+](=O)[O-])c1Sc1nnc(C(F)(F)F)n1C`: inactive: > 100 µM.
As to `O=C(c1ccccc1)N1CCN(C(=S)N(C(=O)c2ccccc2)c2ccccc2)C1=S`, the GI50 was inactive: 13.1 µM.
Regarding `CCc1cccc(NC(=O)c2cc(/C=C/c3ccccc3)nc(S)n2)c1`, the GI50 was inactive: > 100 µM.
The same measure for `Cc1nc(C)c(N2CCN(Cc3ccccc3)CC2)c(O)n1`: inactive: > 100 µM.
The figure for `COc1ncc(C#CC(=O)c2ccccc2OC)c(OC)n1` is inactive: 19 µM; for `CC(C)NC(=O)OCc1c2c(n(C)c1COC(=O)NC(C)C)-c1cc(Cl)c(Cl)cc1CC2` it is inactive: 51.2 µM; for `Cc1cc(Cl)ccc1NC1=NC(=O)C(CC(=O)Nc2ccc(Cl)cc2Cl)S1` (centres undefined) it is inactive: > 100 µM.
The figure for `O=C(/C=C/c1ccsc1)c1ccco1` is inactive: 16.4 µM; for `Cc1c(/C=N/NC(=O)c2ccccc2)c(=O)n(-c2ccccc2)n1C` it is inactive: > 100 µM; for `C/C1=C\[C@H](C)C[C@H](C)OC(=O)[C@H](C)NC(=O)[C@@H](Cc2ccc(O)c(Br)c2)N(C)C(=O)[C@H](C)NC(=O)[C@@H](C)C1` it is active: 0.413 µM.
As to `CCOC(=O)C1C=C2O[C@@H]3OC4(CCCCC4)O[C@@H]3C2[C@H]2C(=O)C=CC(=O)[C@@]12C(=O)OC` (some centres undefined), the GI50 was inactive: 17 µM.
On to `COc1ccc(C2C3C(=O)C=CC(=O)C3[C@@H]2C)cc1OC` (some centres undefined), for which the GI50 is inactive: > 100 µM.
In the case of `c1csc(-c2ccsc2-c2cccs2)c1`, the GI50 is inactive: > 100 µM.
In the case of `CN(C)CCn1c(=O)c2ccc(NCCN3CCNCC3)c3c(=O)c4ccccc4n(c1=O)c23`, the GI50 was active: 0.815 µM.
On to `COc1ccc2[nH]c3c(O)nncc3c2c1`, for which the GI50 was inactive: > 100 µM.
